Measurements as given in the supplement of paper PMC9446081.
Screen size: about 39,000 compounds; about 220 (0.56%) showed activity. This is one part of the list.
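Further: static incubation at 37 °C against the wild-type strain, values averaged over two biological replicates.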

Each compound was assayed on Escherichia coli K-12 BW25113 (assay: relative growth (OD600 normalised to plate interquartile mean) (fraction); higher = less growth inhibition, active = 0.2 or less). Details: 50 µM; LB; incubation time: overnight (16-24 h).
For Cc1ccc(S(=O)(=O)N(C)C[C@@H]2Oc3ccc(NC(=O)NC(C)C)cc3CC(=O)N([C@@H](C)CO)C[C@H]2C)cc1, the relative growth was inactive: 0.996.
Cc1ccc(S(=O)(=O)N(C)C[C@@H]2Oc3c(NC(=O)NC(C)C)cccc3C(=O)N([C@@H](C)CO)C[C@@H]2C)cc1 was tested, and the relative growth was inactive: 0.964.
In the case of C[C@H](CO)N1C[C@H](C)[C@@H](CN(C)Cc2ccc(C(F)(F)F)cc2)Oc2ccc(NC(=O)Nc3ccc(F)cc3)cc2CC1=O, the relative growth is reported as inactive: 1.02.
With O=C(C[C@@H]1C[C@@H]2c3cc(NC(=O)Nc4ccccc4)ccc3O[C@@H]2[C@@H](CO)O1)NCCN1CCCCC1 the relative growth was inactive: 0.999.
In the case of COc1ccccc1C(=O)Nc1ccc2c(c1)C(=O)N(C)[C@H]1CC[C@@H](CC(=O)NCCc3ccncc3)O[C@H]1CO2, the relative growth is reported as inactive: 0.956.
In the case of N[C@@H]1CN(c2c(F)cc3c(=O)c(C(=O)O)cn([C@@H]4C[C@@H]4F)c3c2Cl)CC12CC2, the relative growth is reported as active: 0.0347.
In the case of COc1ccc(CN(C)C[C@H]2OCCCC[C@@H](C)Oc3ccc(NC(=O)Nc4ccccc4)cc3C(=O)N([C@H](C)CO)C[C@@H]2C)cc1, the relative growth is reported as inactive: 1.
Cc1ccc(S(=O)(=O)N(C)C[C@@H]2OCCCC[C@H](C)Oc3ccc(NS(=O)(=O)c4ccc(Cl)cc4)cc3C(=O)N([C@H](C)CO)C[C@H]2C)cc1 was tested, and the relative growth was inactive: 1.01.
For C[C@@H]1CN([C@H](C)CO)C(=O)Cc2cc(NC(=O)Nc3ccc(C(F)(F)F)cc3)ccc2O[C@H]1CN(C)Cc1ccc(-c2ccccc2)cc1, the relative growth was inactive: 1.01.
For COCC(=O)N1C[C@H](C)[C@@H](OC)CN(C)C(=O)c2ccc(NC(=O)c3ccc(F)cc3)cc2OC[C@@H]1C, the relative growth was inactive: 1.
For C[C@H]1CN([C@@H](C)CO)C(=O)CCCn2cc(nn2)CO[C@@H]1CN(C)S(=O)(=O)c1ccc(Oc2ccccc2)cc1, the relative growth was inactive: 0.999.
In the case of Cn1nnnc1-c1ccco1, the relative growth is reported as inactive: 1.05.
With C[C@H](CO)N1C[C@H](C)[C@@H](CN(C)Cc2ccc(F)cc2)OCc2ccccc2-c2c(n(C)c3ccccc23)C1=O the relative growth was inactive: 0.992.
With CCS(=O)(=O)c1ccccc1C(N)=O the relative growth was inactive: 0.988.
For C[C@@H]1CN([C@@H](C)CO)C(=O)Cc2cc(NC(=O)Nc3ccc(F)cc3)ccc2O[C@@H]1CN(C)S(=O)(=O)c1cn(C)cn1, the relative growth was inactive: 1.02.
Cc1noc(C)c1NC(=O)Nc1ccc2c(c1)CC(=O)N([C@@H](C)CO)C[C@H](C)[C@H](CN(C)Cc1ccc(Oc3ccccc3)cc1)O2 was tested, and the relative growth was inactive: 0.992.
In the case of C[C@H](CO)N1C[C@H](C)[C@H](CN(C)Cc2ccc(C(F)(F)F)cc2)Oc2ccc(NC(=O)Cc3ccccc3)cc2CC1=O, the relative growth is reported as inactive: 1.01.
For Cc1ccc(S(=O)(=O)Nc2ccc3c(c2)C(=O)N([C@H](C)CO)C[C@H](C)[C@@H](CN(C)Cc2ccc(Oc4ccccc4)cc2)O3)cc1, the relative growth was inactive: 0.938.
For C[C@@H]1CN([C@@H](C)CO)C(=O)c2cccc(NC(=O)NC3CCCCC3)c2O[C@@H]1CN(C)C(=O)Nc1cccc2ccccc12, the relative growth was inactive: 1.03.
In the case of Cc1noc(C)c1NC(=O)N(C)C[C@H]1Oc2c(NS(=O)(=O)c3c(C)noc3C)cccc2C(=O)N([C@@H](C)CO)C[C@H]1C, the relative growth is reported as inactive: 1.02.
In the case of CC(=O)N(C)C[C@H]1Oc2ncc(C#C[C@H](C)O)cc2C(=O)N([C@@H](C)CO)C[C@@H]1C, the relative growth is reported as inactive: 0.993.
With C[C@H](CO)N1C[C@H](C)[C@@H](CN(C)S(=O)(=O)c2ccccc2)Oc2c(NC(=O)c3cnccn3)cccc2C1=O the relative growth was inactive: 1.01.
For C[C@H]1CN([C@@H](C)CO)C(=O)Cc2cc(NC(=O)C3CCCCC3)ccc2O[C@H]1CN(C)Cc1ccc(Cl)c(Cl)c1, the relative growth was inactive: 1.01.
With C[C@@H]1CCCCO[C@H](CN(C)Cc2ccc3c(c2)OCO3)[C@@H](C)CN([C@H](C)CO)C(=O)c2cc(NC(=O)Nc3ccc4c(c3)OCO4)ccc2O1 the relative growth was inactive: 0.979.
In the case of COc1ccc(CCN(C)CCCOc2ccc(S(=O)(=O)c3c(C(C)C)c4ccccc4n3C)cc2)cc1OC, the relative growth is reported as inactive: 1.01.
Cn1c(=O)c2c(nc(NCCN)n2C)n(C)c1=O was tested, and the relative growth was inactive: 1.01.
In the case of C[C@H](CO)N1C[C@H](C)[C@@H](CN(C)C(=O)Nc2ccc(C(F)(F)F)cc2)Oc2ccc(NS(C)(=O)=O)cc2C1=O, the relative growth is reported as inactive: 0.962.
In the case of CC(C)(C)[S@@](=O)N1Cc2cc(C(=O)NCc3ccc4c(c3)OCO4)nc(CCNS(=O)(=O)c3ccccc3)c2[C@H]1CCO, the relative growth is reported as inactive: 1.02.
In the case of CN(C(=O)C(Cl)Cl)c1ccc(OC(=O)c2ccco2)cc1, the relative growth is reported as inactive: 1.01.
C[C@H](CO)N1C[C@H](C)[C@@H](CN(C)C(=O)c2ccncc2)OCCCC[C@H](C)Oc2ccc(NC(=O)NC3CCCCC3)cc2C1=O was tested, and the relative growth was inactive: 0.986.
In the case of C[C@H](CO)N1C[C@H](C)[C@H](CN(C)C(=O)C2CCCCC2)OCCCC[C@H](C)Oc2ccc(NS(=O)(=O)c3ccc(Cl)cc3)cc2C1=O, the relative growth is reported as inactive: 1.01.
In the case of C=CCOC(=O)[C@@H]1[C@H]2C(=O)O[C@H](c3ccccc3)[C@H](c3ccccc3)N2[C@H](c2ccc(OCCOC(=O)[C@@H]3C[C@@H]4C(=O)N[C@@H](CC(C)C)C(=O)N4[C@@H]3c3ccc(O)cc3)cc2)[C@@]12C(=O)Nc1ccccc12, the relative growth is reported as inactive: 1.07.
With C[C@@H]1CCCCO[C@@H](CN(C)Cc2ccc(Cl)c(Cl)c2)[C@H](C)CN([C@H](C)CO)C(=O)c2cc(NC(=O)Nc3ccc(F)cc3)ccc2O1 the relative growth was inactive: 1.03.
In the case of Cc1c(C#N)c(Sc2ccccc2Cl)nc2ccccc12, the relative growth is reported as inactive: 0.955.
For COC1CCNCC1, the relative growth was inactive: 0.986.
For CC(C)NC(=O)N(C)C[C@H]1Oc2ccc(NS(=O)(=O)c3ccccc3)cc2C(=O)N([C@@H](C)CO)C[C@@H]1C, the relative growth was inactive: 1.03.
In the case of C[C@H]1CN([C@@H](C)CO)C(=O)Cc2cc(NC(=O)CCCCCC(=O)Nc3ccccc3N)ccc2O[C@H]1CN(C)S(=O)(=O)c1cn(C)cn1, the relative growth is reported as inactive: 1.02.
In the case of C[C@@H]1CN([C@@H](C)CO)C(=O)c2cccc(NS(=O)(=O)c3ccc(F)cc3)c2O[C@@H]1CN(C)Cc1ccc(Cl)c(Cl)c1, the relative growth is reported as inactive: 0.987.
